Results: patent US12331094B2 (Bayer Aktiengesellschaft, priority 2018, dated 2025)

Molecular target: T1, human NPRA (hNPRA) (Homo sapiens, UniProt P16066)
T1 construct: expressed in transfected cells
T1 sequence (P16066 33-1061): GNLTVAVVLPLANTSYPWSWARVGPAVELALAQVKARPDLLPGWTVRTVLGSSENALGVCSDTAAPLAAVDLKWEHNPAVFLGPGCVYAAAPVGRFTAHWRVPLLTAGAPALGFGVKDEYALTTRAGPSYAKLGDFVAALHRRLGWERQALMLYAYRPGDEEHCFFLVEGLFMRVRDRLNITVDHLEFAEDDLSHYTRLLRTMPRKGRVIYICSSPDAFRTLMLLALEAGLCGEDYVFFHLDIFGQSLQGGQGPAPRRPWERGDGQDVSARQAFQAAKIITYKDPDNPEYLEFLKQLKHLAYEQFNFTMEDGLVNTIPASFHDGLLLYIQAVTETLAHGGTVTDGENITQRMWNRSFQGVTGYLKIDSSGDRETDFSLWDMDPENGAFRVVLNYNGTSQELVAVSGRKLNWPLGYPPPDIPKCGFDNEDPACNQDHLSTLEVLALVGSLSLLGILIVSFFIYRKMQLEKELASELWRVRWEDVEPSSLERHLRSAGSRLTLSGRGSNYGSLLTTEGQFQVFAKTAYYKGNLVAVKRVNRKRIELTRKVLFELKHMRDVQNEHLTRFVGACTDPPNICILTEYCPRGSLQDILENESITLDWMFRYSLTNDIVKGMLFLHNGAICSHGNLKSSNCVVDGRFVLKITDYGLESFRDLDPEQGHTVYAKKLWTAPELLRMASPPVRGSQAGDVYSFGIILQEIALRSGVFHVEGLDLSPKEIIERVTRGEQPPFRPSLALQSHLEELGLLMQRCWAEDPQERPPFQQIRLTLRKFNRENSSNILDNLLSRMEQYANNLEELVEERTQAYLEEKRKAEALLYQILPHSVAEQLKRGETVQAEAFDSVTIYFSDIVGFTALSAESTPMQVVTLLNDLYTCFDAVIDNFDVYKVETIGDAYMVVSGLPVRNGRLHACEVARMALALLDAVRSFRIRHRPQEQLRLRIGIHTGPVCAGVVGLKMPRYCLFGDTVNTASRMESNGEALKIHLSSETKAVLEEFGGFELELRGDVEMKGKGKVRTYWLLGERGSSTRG
Test: cGMP quantification (HTRF) on stable hNPRA-CHO k1 cells (res, ics, pcs samples)
Format: cell-based
How it was run: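 CHO-K1 cells stably overexpressing hNPRA were stimulated with natriuretic peptide samples, and cGMP was measured by competitive HTRF (d2-cGMP vs cryptate anti-cGMP antibody). EC50 came from a constrained four-parameter fit, expressed as delta log EC50 versus reference TPP-5661; isolated samples were run at 80 nM to 0.13 nM in 2.5-fold dilutions, in quadruplicate.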

B1: TPP-5657: empty antibody scaffold, negative control; SEQ ID NO 65 and SEQ ID NO 66 (antibody, listed as Homo sapiens)
heavy: [here about 100 residues without letters]LTGAEYFQHWGQGTLVTVSS[here human IgG1 constant region without letters]
light: QSVLTQPPSVSGAPGQRVTISCTGSSSNIGAGYDVHWYQQLPGTAPKLLIYGNSNRPSGVPDRFSGSKSGTSASLAITGLQAEDEADYYCQSYDSSLSGVVFGGGTKLTVLGQPKAAPSVTLFPPSSEELQANKATLVCLISDFYPGAVTVAWKADSSPVKAGVETTTPSKQSNNKYAASSYLSLTPEQWKSHRSYSCQVTHEGSTVEKTVAPTECS
- qualit. activity on hNPRA (BNP engrafted constructs, purified compound samples, stable hNPRA-CHO k1 cells): − (EC50 values>50-fold of the reference compound TPP-5661, meaning average rel. log EC50>1.7, were qualitatively assessed as not active)
- qualit. activity (summarized qualitative assessment relative to TPP-5661): − (EC50 values>50-fold of the reference compound TPP-5661, meaning average rel. log EC50>1.7, were qualitatively assessed as not active)
- qualit. activity of corresp. ANP cpd. (value of the ANP engrafted construct with same integration locus and N-/C-terminal sequence (named in Table 5)): − (EC50 values>50-fold of the reference compound TPP-5661, meaning average rel. log EC50>1.7, were qualitatively assessed as not active)
